From the antibiotic and cytotoxicity screens of Wong et al. (2023)
Some of the results follow.

Test system: S. aureus RN4220
Assay: growth inhibition call (relative growth <= 0.2)
Settings: 50 µM

Row | Compound | growth inhibition call
1 | COc1cccc(S(=O)(=O)Nc2ccc3c(c2)[C@@H]2C[C@H](CC(=O)NCCc4ccccc4)O[C@H](CO)[C@@H]2O3)c1 | inactive
2 | C[C@H](CO)N1C[C@H](C)[C@@H](CN(C)Cc2ccc(-c3ccccc3)cc2)Oc2ccc(NC(=O)Nc3ccc(C(F)(F)F)cc3)cc2CC1=O | inactive
3 | CC[C@@H](N)c1nc(C)c(C)s1 | inactive
4 | O=C(C[C@H]1CC[C@@H]2[C@H](COC[C@H](O)CN2C(=O)c2ccc3c(c2)OCO3)O1)NC1Cc2ccccc2C1 | inactive
5 | C[C@H](CO)N1C[C@H](C)[C@@H](CN(C)Cc2ccc(C(=O)O)cc2)OCCCC[C@H](C)Oc2ccc(NC(=O)Nc3ccc(C(F)(F)F)cc3)cc2C1=O | inactive
6 | C#CC[C@H](c1nc2cc(Cl)ccc2c(=O)n1Nc1ccccc1)N(CCCN)C(=O)c1cccc(Cl)c1F | active
7 | CN(C)CCN1CCN(C)C2(CCN(C(=O)[C@H]3CCCO3)CC2)C1=O | inactive
8 | COCCN(C)C(=O)c1ccc2nnc([C@H]3CN(S(C)(=O)=O)CCN3C)n2c1 | inactive
9 | Cn1cc(CN2CCn3nnc(CO)c3C2)cn1 | inactive
10 | COc1ccc(CN(C)C[C@@H]2OCCCC[C@@H](C)Oc3ccc(NC(=O)c4ccccc4)cc3C(=O)N([C@H](C)CO)C[C@H]2C)cc1 | inactive
11 | O=C(N[C@@H]1CC[C@@H](CCNS(=O)(=O)c2ccccc2)O[C@@H]1CO)c1cnccn1 | inactive
12 | COc1ccc(C(=O)C=Cc2ccccc2)cc1 | inactive
13 | CC(=O)[C@]1(N)Cc2c(O)c3c(c(O)c2[C@@H](O[C@H]2C[C@H](O)[C@H](O)CO2)C1)C(=O)c1ccccc1C3=O | inactive
14 | C[C@@H]1CN([C@@H](C)CO)S(=O)(=O)c2ccc(C3=CCCC3)cc2O[C@H]1CN(C)C(=O)c1cnccn1 | inactive
15 | N[C@@H](Cc1ccc(O)c(O)c1)C(=O)O | inactive
16 | COc1ccc(NC(=O)N(C)C[C@H]2Oc3ccc(NC(=O)C4CC4)cc3C(=O)N([C@@H](C)CO)C[C@@H]2C)cc1 | inactive
17 | Cc1noc(C)c1NC(=O)N(C)C[C@@H]1Oc2ccc(NC(=O)C3CC3)cc2CC(=O)N([C@@H](C)CO)C[C@H]1C | inactive
18 | C[C@H](CO)N1C[C@H](C)[C@@H](CN(C)Cc2ccc(C(F)(F)F)cc2)OCCCC[C@H](C)Oc2ccc(NS(=O)(=O)c3cn(C)cn3)cc2C1=O | inactive
19 | Cc1noc(C)c1NC(=O)Nc1cccc2c1O[C@@H](CN(C)C(=O)Nc1cccc3ccccc13)[C@H](C)CN([C@@H](C)CO)C2=O | inactive
20 | Cc1cccc(-c2ccc3c(c2)O[C@H](CN(C)Cc2ccc(C(=O)O)cc2)CCN(C(C)C)S3(=O)=O)c1 | inactive
21 | C[C@H]1CN([C@@H](C)CO)C(=O)c2cc(NC(=O)CCN3CCOCC3)ccc2O[C@H]1CN(C)CC1CC1 | inactive
22 | O=c1[nH]c(=O)c2ccccc2o1 | inactive
